# Assay results published in PubChem BioAssay AID624417 (National Center for Advancing Translational Sciences (NCATS), 2012).
# The whole screen tested about 410,000 compounds, of which about 6,400 (1.6%) were called active. The inconclusive results got no clear call from the source; some entries with a clear call stand among them for comparison. The call rests on the fitted dose curve; in most records, active means well fitted inhibition curve with a large enough effect; inconclusive means small, poorly fitted or top-dose-only effect; inactive means no such curve, though single readings can be large or run the other way. Potencies of inconclusive entries are left out as doubtful fits.
# Target: Glucagon-like peptide 1 receptor (Homo sapiens) (UniProt P43220)
# UniProt P43220, sequence (P43220 whole entry, looked up): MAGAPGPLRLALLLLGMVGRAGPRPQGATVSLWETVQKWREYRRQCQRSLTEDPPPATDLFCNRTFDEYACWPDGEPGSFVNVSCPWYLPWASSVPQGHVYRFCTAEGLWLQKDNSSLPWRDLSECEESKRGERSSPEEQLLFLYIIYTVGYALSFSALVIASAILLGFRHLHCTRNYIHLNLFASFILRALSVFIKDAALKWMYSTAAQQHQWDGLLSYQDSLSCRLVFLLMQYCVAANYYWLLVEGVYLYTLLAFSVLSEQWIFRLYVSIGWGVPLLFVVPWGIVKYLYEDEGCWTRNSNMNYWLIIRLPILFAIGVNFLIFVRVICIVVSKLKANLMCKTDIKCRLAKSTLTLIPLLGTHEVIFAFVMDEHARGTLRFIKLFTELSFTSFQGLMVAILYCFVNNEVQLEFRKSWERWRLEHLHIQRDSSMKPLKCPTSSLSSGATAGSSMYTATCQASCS
# Assay: qHTS of GLP-1 Receptor Inverse Agonists (Inhibition Mode); further: nearly all actives have a fitted effect of over 55% in size
# Conditions: HEK293 GLP-1R CRE-luciferase, luminescence, 24 h, GLP-1R form is constitutively active; series mostly up to 38.3 µM
# In short: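 Readout was luciferase luminescence, measured 12 min after detection reagent at room temperature. Beforehand, GLP-1R reporter HEK293 cells had sat 12 h, then received compounds for 24 hr at 37 deg C.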
# Potency means the concentration at half of the fitted maximal effect; tags describe the fitted curve by direction and shape.
row,SMILES,Potency
1,Cc1cccc(NC(=O)Cn2c(SCC(=O)NCc3ccccc3)nc3ccccc32)c1C,"inconclusive [inhibitor, single point]"
2,COc1ccc(NC(=O)CCN2CCN(C/C=C/c3ccccc3)CC2)cc1,inactive
3,O=S1(=O)CC(O)C(N2CCCCC2)C1 (configuration not stated),inactive
4,S=C(NCc1ccc(Cl)cc1)Nc1ccccc1,"inconclusive [inhibitor, partial curve, poor fit]"
5,COc1ccc(Cl)cc1NC(=O)CN(C)CC(=O)Nc1ccc(S(N)(=O)=O)cc1,"inconclusive [inhibitor, single point]"
6,OCc1ccc(-c2ccccc2)c(-c2ccccc2)c1,"inconclusive [inhibitor, single point]"
7,CN(C)S(=O)(=O)c1ccc(C(=O)Nc2nc(-c3cc4ccccc4o3)cs2)cc1,"inconclusive [inhibitor, full curve, poor fit]"
8,c1ccc(OCCNc2ccn3nc(-c4ccc(OCCN5CCOCC5)cc4)cc3n2)cc1,"inconclusive [inhibitor, single point]"
9,CCc1ccc(NC(=O)CC2C(=O)N(c3ccc(F)cc3)C(=O)N2Cc2ccc(F)cc2)cc1 (configuration not stated),"inconclusive [inhibitor, partial curve, poor fit]"
10,C=CCc1cc(C)ccc1OCCOCCN1CCN(C)CC1,"inconclusive [inhibitor, partial curve, poor fit]"
11,COc1cccc(C(=O)Nc2ccccc2-c2ccccc2)c1,"inconclusive [inhibitor, single point]"
12,Cn1cccc1C(=O)OCC(=O)Nc1ccc2c(c1)OCCO2,"inconclusive [inhibitor, partial curve, poor fit]"
13,Cc1cccc(NC(=S)N(CCCN2CCOCC2)Cc2ccccn2)c1,inactive
14,CCOC(=O)c1c(NC(=O)CN2C(=O)NC3(CCCCC3C)C2=O)sc(C)c1C (configuration not stated),"inconclusive [inhibitor, single point]"
15,Cc1ccc(-n2nc(C)c3c(C(F)(F)F)cc(-c4cccnc4)nc32)cc1C,inactive
16,C=CCn1c(SCc2c(C(=O)OC)sc(N)c2C(=O)OC)nnc1-c1ccc(Cl)cc1,"inconclusive [inhibitor, single point]"
17,COc1ccc(C(=O)C2CCCN(Cc3cccn3-c3ccccn3)C2)c(C)c1 (configuration not stated),"inconclusive [inhibitor, single point]"
18,COc1ccc(NC(=O)Nc2cc(C(=O)NCc3ccc(C)cc3)ccc2N2CCCC2)cc1,inactive
19,O=C(Nc1ccc(Br)cc1)C1CCCN(C2=NS(=O)(=O)c3ccccc32)C1 (configuration not stated),"inconclusive [inhibitor, full curve, poor fit]"
20,CCCCN(C)CCCNC(=O)c1cn(CC)c2ccc(S(=O)(=O)N3CCc4ccccc4C3)cc2c1=O,"inconclusive [inhibitor, partial curve, poor fit]"
21,CC(C)C[C@H](NC(=O)c1nc[nH]c1C(=O)N1CCc2ccccc2C1)C(=O)OCc1ccccc1,"inconclusive [inhibitor, single point]"

row,SMILES,Potency
1,COc1ccccc1N(C(=O)c1cncc(Br)c1)c1nc(-c2ccc(C)cc2)cs1,"inconclusive [inhibitor, partial curve]"
2,CCC/C(O)=C1\C(=O)CC(C)(C)CC1=Nc1ccccc1O,"inconclusive [inhibitor, partial curve, poor fit]"
3,COc1ccccc1CNC(=O)c1cc(S(=O)(=O)N2CCCC(C)C2)cn1C (configuration not stated),"inconclusive [inhibitor, partial curve, poor fit]"
4,COc1cccc(Nc2nnc(SCC(=O)N(CC(C)C)CC(C)C)s2)c1,"inconclusive [inhibitor, partial curve, poor fit]"
5,O=C(NC(=S)Nc1cc(C(F)(F)F)ccc1N1CCOCC1)c1sc2ccccc2c1Cl,inactive
6,CCN1CCc2c(sc(NC(=O)c3ccc(S(=O)(=O)N(CC)c4ccccc4)cc3)c2C(N)=O)C1,"inconclusive [inhibitor, single point]"
7,Cc1ccc(-n2nc(C)c3c(C(=O)NCCc4ccc(S(N)(=O)=O)cc4)cc(C)nc32)cc1,inactive
8,CCN(CC)c1ccc(S(=O)(=O)N2CCCCC2)cc1NC(=O)C1=COCCO1,"inconclusive [inhibitor, single point]"
9,COc1ccccc1C(=O)COC(=O)/C=C/c1ccccc1,"inconclusive [inhibitor, single point]"
10,O=C(O)c1ccc(S(=O)(=O)N2CCCc3ccccc32)cc1,inactive
11,Cc1cccc(-c2noc(CN(C)C(=O)c3ccco3)n2)c1,"inconclusive [inhibitor, single point]"
12,CCOc1ccc(S(=O)(=O)N2CCCCC2)cc1NC(=O)C1COc2ccccc2O1 (configuration not stated),"inconclusive [inhibitor, partial curve, poor fit]"
13,Cc1ccc(NC(=O)CN(C)CC(=O)Nc2sc3c(c2C(N)=O)CCC3)cc1,"inconclusive [inhibitor, single point]"
14,CC(C)c1ccc(NC(=O)c2cc3c(=O)[nH]c4ccccc4c3n2C)cc1,inactive
15,O=C(CSc1cn(CC(=O)N2CCCCC2)c2ccccc12)NCc1ccccc1Cl,"inconclusive [inhibitor, single point]"
16,O=C(NNC(=O)c1ccccc1OCc1ccccc1Cl)c1csc(N2CCOCC2)n1,"inconclusive [inhibitor, full curve, poor fit]"
17,Cc1cc2nc(-c3ccc(SCC(=O)Nc4ccc(S(=O)(=O)N5CCCC5)cc4)nc3)[nH]c2cc1C,"inconclusive [inhibitor, single point]"
18,CCN(CC)CCn1c(NCc2ccc(C)o2)nc2ccccc21,"inconclusive [inhibitor, partial curve, poor fit]"
19,CC1CC(C)CN(C(=O)C(C)N2CCN(S(=O)(=O)c3ccccc3F)CC2)C1 (configuration not stated),"inconclusive [inhibitor, single point]"
20,C[C@@H]1OC(C2CCCCC2)N(C)[C@H]2C[C@H]3c4[nH]c5ccccc5c4CCN3C[C@@H]12 (some centres not stated),"inconclusive [inhibitor, single point]"
21,COc1ccc(NS(=O)(=O)c2cccc(NC(=O)CCC(=O)c3ccc(Cl)cc3)c2)cc1,"inconclusive [inhibitor, partial curve]"

row,SMILES,Potency
1,COc1ccc(OCC(=O)Nc2c(C(=O)N(CCN(C)C)Cc3ccco3)oc3ccccc23)cc1,active: 7.94 µM
2,CCN(CC)CCCN(Cc1cc2cc3c(cc2[nH]c1=O)OCO3)C(=S)Nc1ccccc1OC,"inconclusive [inhibitor, single point]"
3,Cc1cc(Nc2cccc(Cl)c2)nc2ccc(NC(=O)COc3ccc(Cl)cc3)cc12,inactive
4,COc1ccc(C(=O)N(C)CCCC2CCCC2)cc1OC1CCN(C(C)C)CC1,"inconclusive [inhibitor, partial curve, poor fit]"
5,COc1cc(OC)c2ccc(=O)oc2c1C(CCN1CCN(c2ccccc2)CC1)c1ccc2c(c1)OCO2 (configuration not stated),"inconclusive [inhibitor, single point]"
6,COC(=O)[C@H](Cc1ccccc1)NC(=O)NC(C)CCc1ccccc1 (some centres not stated),"inconclusive [inhibitor, single point]"
7,CCCCCCCC1(C)NC(=O)N(c2ccccc2)N1 (configuration not stated),"inconclusive [inhibitor, single point]"
8,O=C(Nc1ccc(-c2cn3c(n2)SCC3)cc1)c1ccc2c(c1)OCO2,"inconclusive [inhibitor, single point]"
9,C[C@H](CO)N1C[C@H](C)[C@@H](CN(C)Cc2ccc(-c3ccccc3)cc2)Oc2ncc(C#C[C@@H](C)O)cc2C1=O,"inconclusive [inhibitor, single point]"
10,CCOc1ccc(NC(=S)N(CCOC)C(C)c2ccco2)cc1 (configuration not stated),"inconclusive [inhibitor, partial curve]"
11,O=C(CC1Sc2ccccc2NC1=O)Nc1cccc(C(F)(F)F)c1 (configuration not stated),"inconclusive [inhibitor, partial curve, poor fit]"
12,Cc1cccc(-c2cccc(NC(=O)C3CCCN(C(=O)c4csc(C)n4)C3)c2)c1 (configuration not stated),active: 5.01 µM
13,O=C(c1ccco1)N1N=C(c2cccs2)CC1c1ccccc1O (configuration not stated),"inconclusive [inhibitor, partial curve, poor fit]"
14,Cc1ccc(SCC(=O)N2CCc3ccccc32)cc1,"inconclusive [inhibitor, single point]"
15,CC(C)Nc1ncnc2c1cnn2-c1ccccc1,inactive
16,CCn1c(C)c(C)c2cc(C(=O)NCCN3CCCCCC3)ccc21,"inconclusive [inhibitor, partial curve, poor fit]"
17,N#CC1(Cc2ccccc2)c2ccccc2C=CN1C(=O)c1ccccc1 (configuration not stated),active: 8.91 µM
18,CC(Nc1ccc([N+](=O)[O-])cc1[N+](=O)[O-])c1ccccc1 (configuration not stated),"inconclusive [inhibitor, single point]"
19,O=C(Nc1cccc(Cl)c1)c1ccc2sc([C@H]3C[C@H](O)[C@@H](CO)O3)nc2c1,"inconclusive [inhibitor, single point]"
20,O=C(CCCc1ccccc1)Nc1cccc2c1CCCC2,"inconclusive [inhibitor, partial curve, poor fit]"
